This note sets out measurements from PubChem BioAssay AID463173 (ICCB-Longwood Screening Facility, Harvard Medical School, 2010).

Molecules are shown by their SMILES. Screen size: about 52,000 compounds; about 4,300 (8.3%) were called active. Cut-off read from the data, not from the text of the source: active = survival mostly below about 52% (no sharp cut-off); inactive = mostly above about 56%. Some of the results follow.

The assay has as its system DeltatarO mutant. Nature of the assay: growth inhibition of S. aureus wild type versus tarO mutant, primary screen, teichoic acid synthesis inhibitors, RN4220, OD600 (AID 463173). Particulars: OD600, 18 h, hits give low values, screened at 18.75 µg/mL (by protocol).
Take `CCn1c(=N)c(C(N)=O)cc2c(=O)n3ccccc3nc21`: the survival was inactive: 118%.
`O=C(CCN1C(=O)CSC1=O)Nc1ccccc1`: the survival is inactive: 114%.
The same measure for `CC1=C(C#N)C(=O)NC(=O)/C1=C\c1ccc(-c2ccc(S(N)(=O)=O)cc2)o1`: inactive: 106%; for `Cc1ccc(C(=O)Nc2cccc(C(=O)OCc3cc(=O)n4c5c(sc4n3)CCCC5)c2)cc1`: inactive: 105%.
Consider `Cc1ccc(NC(=O)C2CCCN(S(=O)(=O)c3cccc4cccnc34)C2)cc1Cl` (stereo not given), for which the survival was inactive: 72%.
The same measure for `Cc1ccc2[nH]cc(C(c3ccccc3)c3cccs3)c2c1` (stereo not given): active: 12%.
Turning to `COc1cc(OC)c(NC(=O)c2ccc3nc(C(C)C)oc3c2)cc1Cl`, the survival was inactive: 76%.
For `COc1ccccc1CNC(=O)c1cn(C)c2ccc(S(=O)(=O)N3CCC(C)CC3)cc2c1=O`, the survival is inactive: 92%.
The same measure for `O=C(COc1ccc(S(=O)(=O)NCc2ccccc2)cc1)NCc1ccco1`: inactive: 89%.
For the molecule `CCOc1ccc(CCNC(=O)C2CCCN(c3nnc(C)c4c(C)n(-c5ccccc5)nc34)C2)cc1` (stereo not given), the survival is inactive: 87%.
With `NC(=O)c1c(NC(=O)c2noc3c2CCCC3)sc2c1CCCC2`, the survival is active: 40%.
Then `COc1ccccc1N1CCN(C(=O)C2CCN(S(=O)(=O)c3cccc4nonc34)CC2)CC1`, with inactive: 81%; and `CCN(Cc1ccccc1)C(c1ccccn1)c1nnnn1C(C)(C)CC` (stereo not given), with inactive: 75%.
Consider `Cc1ccc(Nc2cc(C(=O)NC3CCCC3)c3ccccc3n2)cc1C`, for which the survival is inactive: 83%.
The same measure for `Nc1ncc(S(=O)(=O)NCc2ccccc2F)cn1`: inactive: 84%; for `CCOC(=O)c1c(C)n(-c2ccccc2)c2ccc(OC(=O)c3ccccc3Cl)cc12`: inactive: 54%.
As for `CC(C)COc1ccc(C(=O)NCC2OCCc3ccccc32)cc1` (stereo not given), the survival is inactive: 51%.
The same measure for `COc1ccc(C(=O)NCC(c2ccco2)S(=O)(=O)c2ccccc2)cc1` (stereo not given): active: -4%; for `CCOC(=O)c1c(C)oc2nc(C)nc(N3CCN(c4ccc(C)cc4C)CC3)c12`: inactive: 122%; for `CC(=O)N1CCCc2cc(S(=O)(=O)N3CCC(C(=O)NCc4ccc(F)cc4)CC3)ccc21`: inactive: 82%.
The same measure for `Cc1ccc(Cl)cc1N1CC(O)=C(c2nc3ccccc3c(=O)[nH]2)C1=N`: inactive: 67%; for `COc1ccc2oc(=O)c(C(=O)NCCc3c(C)[nH]c4c(C)cccc34)cc2c1`: active: 47%; for `CCc1ccc2nc(N3CCCCC3)c(C#N)cc2c1`: inactive: 88%.
The same measure for `CCOc1cc2[nH]c(=O)n(CCC(=O)N3CCN(c4cccc(Cl)c4)CC3)c(=O)c2cc1OCC`: inactive: 69%; for `COC(=O)c1cc(NC(=O)CCS(=O)(=O)c2cc(Br)cc3c2N(C(=O)C2CC2)CC3)cc(C(=O)OC)c1`: inactive: 97%.
Regarding `CCOC(=O)Cn1nc(C)c(NC(=O)COc2ccc(OC)cc2)c1C`, the survival was inactive: 89%.
Then `Cc1ccccc1C(=O)Nc1ccc(NC(=O)c2cccs2)cc1`, with inactive: 59%; and `CCOc1ccc(-c2csc3ncnc(Nc4cccc(O)c4)c23)cc1`, with inactive: 74%.
For the molecule `CCn1c2ccccc2c2cc(NC(=O)COc3cc(C)c(Cl)c(C)c3)ccc21`, the survival was active: 50%.
The same measure for `COc1ccc(-n2nc(C(=O)O)cc2-c2ccccc2)cc1`: inactive: 61%; for `CC(=O)c1ccc(NC(=O)c2cccc(NC(=O)N3CCSc4ncccc43)c2)cc1`: inactive: 79%; for `CCOCCCNC(=O)c1c(NC(=O)Cc2coc3c(C)c(C)ccc23)sc2c1CCC2`: inactive: 60%.
`Cc1cc(C)cc(N(C)S(=O)(=O)c2nnc(NC(=O)COc3ccc(C)c(C)c3)s2)c1`: the survival is active: 30%.
Then `COC(=O)c1cc(C)nc2c1c(=O)nc(SCc1cc(C)ccc1C)n2C1CC1`, with inactive: 67%.
The same measure for `COc1cc(OC)c(NC(=O)COc2ccccc2-c2nnc(-c3ccccc3)o2)cc1Cl`: inactive: 95%; for `CCN1CCOC(=O)C1CC(=O)Nc1ccccc1C(F)(F)F` (stereo not given): inactive: 71%; for `Cc1cccc(NC(=O)C2CCC(CNS(=O)(=O)c3ccc4c(c3)CCCC(=O)N4)CC2)c1C` (stereo not given): inactive: 73%.
Regarding `CCCN(C(=O)C1CCN(S(=O)(=O)c2c(C)noc2/C=C/c2ccc(C)cc2)CC1)c1ccccc1F`, the survival was inactive: 80%.
Then `CC(C)(C)c1ccc(-c2nnc(-c3ccc(N4CCOCC4)cc3)o2)cc1`, with inactive: 107%; and `NC(=O)CN1C(=O)Cc2ccccc21`, with inactive: 74%.
Then `O=C(CCc1ccccc1)N/N=C/c1cccc(O)c1`, with inactive: 119%; and `CC(=O)N1CCc2c(sc3c2c(=O)n(-c2ccccc2Cl)c(=O)n3C)C1`, with inactive: 88%.
As to `O=C(CSc1nnc(-c2ccco2)c(-c2ccco2)n1)N1c2ccccc2Sc2ccc(Cl)cc21`, the survival was inactive: 114%.
Then `CCn1c(C)cs/c1=N\C(=S)Nc1ccccc1C`, with inactive: 70%.
Regarding `Cc1ccc(-c2c(CN3CCN(c4cc(Cl)ccc4C)CC3)csc2C)cc1`, the survival is inactive: 51%.
The same measure for `O=C(CSc1nc2ccccc2n1CC(=O)Nc1ccc(F)cc1F)Nc1ccc(F)cc1`: inactive: 89%.
The same measure for `CCOc1ccc2c(c1)c(=O)c(S(=O)(=O)c1ccc(C)cc1)cn2CC(=O)Nc1ccc(C)cc1`: inactive: 66%; for `COCCCN1CCc2nc(SCC(=O)Nc3ccc(C)c(Cl)c3)[nH]c(=O)c2C1`: inactive: 83%.
In the case of `CCn1c(=O)c2cc(C(=O)NCCc3cccc(C)c3)sc2c2ccccc21`, the survival was inactive: 70%.
For the molecule `CCOC(=O)c1cc(-c2ccc(/C=C(\C#N)C(N)=C(C#N)C#N)o2)ccc1Cl`, the survival was inactive: 87%.
The same measure for `CCc1ccccc1Nc1nn2c(=O)c3ccc(C(=O)NCCc4ccccc4)cc3nc2s1`: inactive: 69%; for `Cc1cccc(C(=O)NC2(C(F)(F)F)N=C(c3ccccc3)N(Cc3ccccc3)C2=O)c1` (stereo not given): inactive: 73%; for `Cc1c(Cl)cccc1NC(=O)CN1C(=O)c2ccccc2Sc2ncccc21`: inactive: 83%.
On to `O=C(NC1CCCCC1)C1OC(c2ccccc2)OC1C(=O)NC1CCCCC1` (stereo not given), for which the survival was inactive: 86%.
Regarding `CN(C)c1ccc(C(CNC(=O)COc2ccccc2)N2CCOCC2)cc1` (stereo not given), the survival is inactive: 75%.
Then `O=C(CN1C(=O)CCSc2ccc(S(=O)(=O)N3CCCC3)cc21)Nc1cccc(Cl)c1`, with inactive: 83%; and `CCOc1ccc(NC(=O)Nc2c(C)n(C)n(-c3ccccc3)c2=O)cc1`, with inactive: 101%; and `CCN(CC)S(=O)(=O)c1ccc2c(c1)N(CC(=O)NCc1ccccc1)C(=O)CS2`, with inactive: 73%.
The same measure for `Cn1ncc2c(NCc3cccc(Cl)c3)ncnc21`: inactive: 102%; for `COc1cc(Cl)c(C)cc1NC(=O)CSc1cc(=O)n(C)c2cc(Cl)ccc12`: inactive: 63%; for `Cc1ccc2c(=O)cc(C(=O)Nc3sc4c(c3C(=O)NCc3ccco3)CCCC4)oc2c1C`: inactive: 80%.
For `CCc1ccc(CNC(=O)c2nn(-c3ccc(C)c(C)c3)nc2CO)cc1`, the survival is inactive: 112%.
Then `CCC(C)NC(=O)Cn1ncc2c(C)n(Cc3ccc(F)cc3)c(C)c2c1=O` (stereo not given), with inactive: 66%; and `COC(=O)c1ccc(Cn2c(=O)cc(C)c3c(C)nn(C)c32)cc1`, with inactive: 66%.
Then `CC(=O)CSc1nc(-c2ccccc2)[nH]c1S(=O)(=O)c1ccc(C)cc1`, with inactive: 74%; and `CCOc1ccc(Sc2cc(C(=O)NCc3ccc(F)cc3)c3ccccc3n2)cc1`, with inactive: 124%; and `CCn1cc(C(=O)N2CCN(c3ccccc3)CC2)c(=O)c2cc(S(=O)(=O)N(C)C3CCCCC3)ccc21`, with inactive: 79%.
As for `CC(C)(C)C(=O)N1c2ccccc2CCc2ccccc21`, the survival is inactive: 84%.
On to `COc1ccc(NS(=O)(=O)c2ccc3c(c2)CCN3C(=O)C2CC2)cc1OC`, for which the survival is inactive: 86%.
The same measure for `Cc1cc(C)c2c(=O)cc(C(=O)NCCc3ccc(S(N)(=O)=O)cc3)oc2c1`: inactive: 61%; for `CC(C)OC(=O)CSc1n[nH]c(-c2cccnc2)n1`: inactive: 108%; for `O=C(Cc1cccs1)N1CCC(Cc2ccccc2)CC1`: inactive: 97%.
With `Cc1ccccc1CNC(=O)C(=O)NCC(c1ccco1)S(=O)(=O)c1ccc(F)cc1` (stereo not given), the survival was inactive: 81%.
As to `O=C(O)/C(=C/C(=O)c1ccccc1)Nc1ccccc1`, the survival is inactive: 101%.
Then `Cc1c(Cl)cccc1NC(=O)N1CCN(Cc2cc(=O)n3nc(-c4ccccc4F)sc3n2)CC1`, with inactive: 101%.
As to `Cc1nn(C)c2c1c(-c1ccccc1)cc(=O)n2Cc1ccccc1F`, the survival is inactive: 109%.
Then `CCCS(=O)(=O)N1CCC(N2CCN(Cc3ccc(C)cc3)C(=O)C2=O)CC1`, with inactive: 74%.
The same measure for `Cc1ccc(-c2noc(CCC(=O)Nc3ccc(F)cc3Cl)n2)cc1`: inactive: 80%; for `COc1ccc(NC(=O)c2cccc(N3CCCS3(=O)=O)c2)cc1`: inactive: 88%.
The same measure for `Cc1cc(F)ccc1NC(=O)C1CCCN(c2nnc(-n3c(C)ccc3C)s2)C1` (stereo not given): inactive: 79%; for `Cc1cc(C)cc(N2C(=O)CS(=O)(=O)C23C(=O)N(Cc2ccc(F)cc2)c2ccc(C)cc23)c1` (stereo not given): inactive: 67%.
With `Cn1ncc(C(=O)N2CCN(c3ccccc3)CC2)c1C1CCN(C(=O)OC(C)(C)C)CC1`, the survival was inactive: 78%.
The same measure for `CCOc1ccc(-c2cc3nc(C4CCN(C(=O)OC(C)(C)C)CC4)c(C(=O)Nc4ccc(C(=O)OC)cc4)cn3n2)cc1`: inactive: 109%; for `Cc1ccc(CCNC(=O)NCc2noc3ccc(C)cc23)cc1`: inactive: 76%; for `Cc1cccc(NC(=O)C(c2ccccc2)N2Cc3ccccc3C2=O)c1C` (stereo not given): inactive: 95%.
For `COC(=O)c1ccc(COC(=O)c2ccccn2)cc1`, the survival is inactive: 97%.
Then `CNC(=O)CN(C1CCCCC1)S(=O)(=O)c1ccc(C)cc1`, with inactive: 75%; and `COC(=O)c1sccc1S(=O)(=O)N(CC(=O)Nc1ccc(C)cc1)c1ccccc1`, with inactive: 97%.
Then `COc1cccc2cc(-c3nnc(Nc4ccccc4C)s3)c(=O)oc12`, with inactive: 71%.
The same measure for `CCN1C(=O)/C(=C/C=C2\Oc3ccccc3N2CC)SC1=S`: inactive: 77%.
